This note sets out measurements from PubChem BioAssay AID360 (National Center for Advancing Translational Sciences (NCATS), 2006).

The campaign covered roughly 48,000 compounds. About 550 (1.1%) were called active. Roughly 4% stayed inconclusive and do not appear here. Cut-off read from the data, not from the text of the source: active = potency below about 15 µM; inconclusive = mostly about 16 µM to 33 µM; inactive = weaker than that. Some of the results follow. A value given as a limit tells only on which side of the number the result lay.
Potency is the fitted concentration of half-maximal effect.

This assay concerns the target Lysosomal acid glucosylceramidase (Homo sapiens) (UniProt P04062). Kind of assay: Glucocerebrosidase.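 Note: the screen sought inhibitors.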 The conditions noted are these: purified enzyme, resorufin glucoside fluorescence (screen aimed at inhibitors), 20 min. The method, boiled down: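 Normal human glucocerebrosidase (0.2 nM final) was assayed with resorufin β-D-glucopyranoside (30 uM final) in 50mM citric acid/KH2PO4, 10mM sodium taurocholate, 0.01% tween-20, pH 5.9. Compounds were titrated; fluorescence (Ex 548, Em 600) read after 20 min at RT.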
UniProt P04062, sequence (P04062 whole entry, looked up): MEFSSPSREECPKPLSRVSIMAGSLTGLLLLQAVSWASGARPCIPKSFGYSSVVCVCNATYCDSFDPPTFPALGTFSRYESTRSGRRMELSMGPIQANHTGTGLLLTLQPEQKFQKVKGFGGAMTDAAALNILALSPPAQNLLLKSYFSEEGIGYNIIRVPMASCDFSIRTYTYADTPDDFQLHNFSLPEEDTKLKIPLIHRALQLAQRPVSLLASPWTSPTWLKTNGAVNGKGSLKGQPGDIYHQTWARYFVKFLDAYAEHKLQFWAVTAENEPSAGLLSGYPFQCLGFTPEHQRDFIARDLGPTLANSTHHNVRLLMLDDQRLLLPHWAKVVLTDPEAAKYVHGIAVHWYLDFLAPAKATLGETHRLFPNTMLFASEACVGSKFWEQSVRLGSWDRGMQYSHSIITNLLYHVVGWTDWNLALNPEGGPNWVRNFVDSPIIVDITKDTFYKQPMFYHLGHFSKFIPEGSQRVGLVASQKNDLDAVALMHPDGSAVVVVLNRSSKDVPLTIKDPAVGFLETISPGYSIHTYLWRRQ
Consider `COc1ccccc1N1C(=O)CC(Nc2ccc(N3CCOCC3)cc2)C1=O` (stereo unspecified), for which the Potency is inactive: > 76.9 µM. As for `COc1ccc(-c2cc(C(F)(F)F)nc(SCC(=O)N3CCOCC3)n2)cc1OC`, the Potency was inactive: > 76.9 µM. As to `CCC(=O)Nc1ccc(C(=O)Nc2ccc3c(c2)C(=O)N(CC2CCCO2)C3=O)cc1` (stereo unspecified), the Potency was inactive: > 76.9 µM. As for `Cc1ccc2nc(NCCCNC(=O)c3cnccn3)c(C#N)cc2c1`, the Potency result was “inactive”.

In the case of `CC(C)(C)c1nc2scc(-c3cccs3)c2c(=O)o1`, the Potency entry was “inactive”. With `C/[N+]([O-])=C1\Cc2ccccc2C1=O` the figure was inactive: > 76.9 µM. For the compound `Cc1ccc(C(C(=O)NC(C)(C)C)N(CC2CCCO2)C(=O)Cn2nnc(-c3ccc(C)o3)n2)cc1` (stereo unspecified), the Potency is inactive: > 76.9 µM. The figure for `O=C(CN1C(=O)C2CCCN2C(=O)c2ccccc21)Nc1ccccc1-n1cccc1` (stereo unspecified) is inactive: > 76.9 µM; for `CC1CCN(C(=O)c2ccc(NS(C)(=O)=O)cc2)CC1` it is inactive: > 76.9 µM. With `O=C(c1cccs1)N1CCN(Cc2cccnc2)CC1` the figure was inactive: > 76.9 µM.

Take `O=C1c2ccccc2C(=O)N1Cc1nc2ccccc2o1`: the Potency was inactive: > 76.9 µM. The figure for `CCC(=O)N1CCN(c2ccccc2NC(=O)c2cccc(C)c2)CC1` is inactive: > 76.9 µM; for `O=C(NCCCN1CCN(CCCNC(=O)c2ccccc2F)CC1)c1ccccc1F` it is inactive: > 76.9 µM. The figure for `Cc1ccc(-c2nnn(CC(=O)N3CCCCC3)n2)c(-n2cnnn2)c1` is inactive: > 76.9 µM. Consider `CCn1c(=O)c(C(=O)CN2CC(C)OC(C)C2)c(N)n(Cc2ccccc2)c1=O` (stereo unspecified), for which the Potency was inactive: > 76.9 µM. With `Cc1ccc(OC(C)C(=O)N2CCc3ccccc32)cc1` (stereo unspecified) the figure was inactive: > 76.9 µM; with `COc1ccc(-c2cc(C(=O)NCc3ccc(Cl)cc3)no2)cc1OC`, inactive: > 76.9 µM; with `CCOC(=O)C1CCN(C(=O)c2sc3nc(-c4ccccc4)cn3c2C)CC1`, inactive: > 76.9 µM. The figure for `C/C=C/CSc1nc2c(c(=O)[nH]c(=O)n2C)n1CCC` is inactive: > 76.9 µM.

`O=C1CC(C(=O)N(c2ccc(F)cc2)C(C(=O)NC2CCCC2)c2ccccn2)CS1` (stereo unspecified): the Potency is inactive: > 76.9 µM.

As for `O=C(Nc1ccccc1F)c1ccncc1`, the Potency is inactive: > 76.9 µM. With `COC(=O)C1(S(=O)(=O)c2cccc3nsnc23)CC1` the figure was inactive: > 76.9 µM.

On to `CCCn1c(=O)n(C)c(=O)c2c3oc(=O)c(NC(=O)c4ccc(F)cc4)cc3[nH]c21`, for which the Potency was inactive: > 76.9 µM.

For `Cc1cc(C)cc(NC(=O)C2CCN(S(=O)(=O)c3c(C)n[nH]c3C)CC2)c1`, the Potency was inactive: > 76.9 µM. For `CCOc1nc(-c2ccc(OC)cc2)ccc1-c1noc(C)n1`, the Potency is inactive: > 76.9 µM. The figure for `COCCNC(=O)C(c1ccco1)N(C(=O)Cn1nnc2ccccc21)c1cccc(C)c1C` (stereo unspecified) is inactive: > 76.9 µM; for `COc1ccc(C2C(C(=O)NCC3CCCO3)CCC(=O)N2c2ccc3c(c2)OCO3)cc1` (stereo unspecified) it is inactive: > 76.9 µM; for `COCC(C)NC(=O)c1cc(-c2ccccc2OC)on1` (stereo unspecified) it is inactive: > 76.9 µM. With `COc1ccc(CN2CCCC(C(=O)N(C)Cc3ccccc3)C2)cc1OC` (stereo unspecified) the figure was inactive: > 76.9 µM; with `CCOC(=O)c1[nH]c2ccc(OCC)cc2c1NC(=O)CN1CCN(c2ccccn2)CC1`, inactive: > 76.9 µM; with `CCOC(=O)N1CCN(C(=O)CCn2nc(-c3ccc(Cl)cc3)ccc2=O)CC1`, inactive: > 76.9 µM. On to `CC(=O)c1cccc(-n2c(CCC(=O)O)ccc2-c2cccs2)c1`, for which the Potency is inactive: > 76.9 µM. With `CCSc1nnc(NC(=O)CSc2nc3c(c(=O)n2-c2ccccc2)SCC3)s1`, the Potency is inactive: > 76.9 µM. The entry for `CCn1ncc2c1C(=O)NC1c3ccccc3C(=O)N21` (stereo unspecified) is “inactive”; for `COc1cccc(-c2nnc(N(C)C(=O)c3ccno3)s2)c1` it is inactive: > 76.9 µM.

Regarding `COCC(=O)NCCc1nc(-c2ccccc2)cs1`, the Potency was inactive: > 76.9 µM. For `CCC(C)[C@H](NC(=O)NCc1ccccc1)C(=O)O` (stereo partly specified), the Potency was inactive: > 76.9 µM. Turning to `CC1CCN(CCCNC(=O)c2cn(C)c3ccc(S(=O)(=O)N4CCCC4)cc3c2=O)CC1`, the Potency was inactive: > 76.9 µM. The figure for `COc1ccc(N(CC(=O)Nc2ccc(S(=O)(=O)N3CCCC3)cc2)S(C)(=O)=O)cc1OC` is inactive: > 76.9 µM; for `CC1CCN(c2nc3c(c(=O)[nH]c(=O)n3C)n2CCSc2nc3ccccc3o2)CC1` it is inactive: > 76.9 µM. With `CCOC(=O)c1ccc(NC(=O)Nc2ccc3c(c2)OCCO3)cc1` the figure was inactive: > 76.9 µM; with `COC(=O)CSc1nnc([C@H](Cc2ccccc2)NC(=O)OC(C)(C)C)o1`, inactive: > 76.9 µM. With `Nc1cc(=O)[nH]c(SCCNS(=O)(=O)c2ccccc2)n1` the figure was inactive: > 76.9 µM; with `Cc1ccc(C(C(=O)NC2CCCC2)N(Cc2ccc(F)cc2)C(=O)c2csnn2)o1` (stereo unspecified), inactive: > 76.9 µM. As to `Nc1cccc(C(=O)Nc2ccco2)c1`, the Potency is inactive: > 76.9 µM. With `Cc1cc(C(=O)COC(=O)c2cccs2)c(C)n1-c1c(C)n(C)n(-c2ccccc2)c1=O` the figure was inactive: > 76.9 µM; with `O=C(NCCc1c[nH]c2ccccc12)c1c(Cl)nc2sccn12`, inactive: > 76.9 µM; with `Cc1c(-n2c(SCC(=O)O)nnc2-c2ccccc2Cl)c(=O)n(-c2ccccc2)n1C`, inactive: > 76.9 µM.

As for `Clc1ccc(COn2nnc3ccccc32)c(Cl)c1`, the Potency is inactive: > 76.9 µM. For `CC(C)(C)C(=O)/C=c1\[nH]c(=O)/c(=C\c2ccc(C#N)cc2)s1`, the Potency was inactive: > 76.9 µM.

Take `O=C(Nc1ccc(N2CCOCC2)cc1)Nc1cnsn1`: the Potency was inactive: > 76.9 µM. The figure for `CCOc1cccc(-c2nn3c(-c4cc(C)[nH]n4)nnc3s2)c1` is inactive: > 76.9 µM.

As to `O=C(Nc1ccccc1C(=O)N1CCOCC1)C1CCC(=O)N1C1CCCC1` (stereo unspecified), the Potency is inactive: > 76.9 µM. Consider `CCCN1CC=C2C(C#N)=C(N)C(C#N)(C#N)C(c3cc(OC)ccc3OC)C2C1` (stereo unspecified), for which the Potency was inactive: > 76.9 µM. For `O=C(NCc1ccco1)c1cccn2c(=O)c3cc(Br)ccc3nc12`, the Potency is inactive: > 76.9 µM. With `Fc1cccc2sc(Nc3nnc(-c4ccco4)o3)nc12` the figure was inactive: > 76.9 µM.
